Experimental findings from paper PMC4336329 (PLoS ONE, 2015) are described below.

Molecules are shown by their SMILES. The campaign covered roughly 310,000 compounds. About 14,000 (4.5%) showed an effect of 50% or more. Effects have a minus sign here. Some of the results follow.
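Also: peak tail current of the secondary pulse compared with the same well before compound.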

The target in this test is human ether-à-go-go-related gene (hERG) potassium channel (human, UniProt Q12809). Put plainly: primary screen, population patch clamp on CHO cells stably expressing hERG.
human ether-à-go-go-related gene (hERG) potassium channel, sequence (Q12809 whole entry, looked up): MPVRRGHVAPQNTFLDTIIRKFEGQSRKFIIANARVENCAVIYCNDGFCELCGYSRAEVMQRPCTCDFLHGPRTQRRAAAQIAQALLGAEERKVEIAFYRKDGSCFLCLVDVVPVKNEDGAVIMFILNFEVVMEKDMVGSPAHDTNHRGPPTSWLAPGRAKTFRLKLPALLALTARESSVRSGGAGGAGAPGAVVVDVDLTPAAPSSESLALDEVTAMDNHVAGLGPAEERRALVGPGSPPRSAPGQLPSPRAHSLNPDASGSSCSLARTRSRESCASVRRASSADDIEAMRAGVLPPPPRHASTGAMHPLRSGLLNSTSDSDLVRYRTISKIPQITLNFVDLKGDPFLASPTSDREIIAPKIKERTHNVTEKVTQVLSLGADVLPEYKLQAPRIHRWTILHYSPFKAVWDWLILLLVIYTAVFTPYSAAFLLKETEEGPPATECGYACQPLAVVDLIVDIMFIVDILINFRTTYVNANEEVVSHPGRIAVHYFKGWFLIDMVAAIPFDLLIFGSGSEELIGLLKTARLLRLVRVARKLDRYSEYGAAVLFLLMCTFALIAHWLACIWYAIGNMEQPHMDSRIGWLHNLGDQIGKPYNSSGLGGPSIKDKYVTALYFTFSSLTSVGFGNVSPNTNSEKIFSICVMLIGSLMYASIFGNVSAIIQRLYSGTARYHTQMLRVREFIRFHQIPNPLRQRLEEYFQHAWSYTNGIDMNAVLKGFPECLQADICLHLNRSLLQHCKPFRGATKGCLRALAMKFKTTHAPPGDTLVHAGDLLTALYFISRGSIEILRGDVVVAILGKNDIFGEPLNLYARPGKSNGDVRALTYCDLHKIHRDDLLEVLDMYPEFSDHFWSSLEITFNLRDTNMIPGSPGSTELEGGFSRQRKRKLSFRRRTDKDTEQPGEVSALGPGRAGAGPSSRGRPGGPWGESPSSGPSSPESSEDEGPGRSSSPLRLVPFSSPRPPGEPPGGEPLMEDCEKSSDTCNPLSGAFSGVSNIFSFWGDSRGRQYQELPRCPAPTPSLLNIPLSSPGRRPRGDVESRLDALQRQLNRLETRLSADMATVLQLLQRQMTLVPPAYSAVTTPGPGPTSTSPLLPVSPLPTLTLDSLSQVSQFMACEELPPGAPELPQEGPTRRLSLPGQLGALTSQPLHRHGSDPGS
Take `Cc1cc(C)n2nc(SCc3nc4ccccc4[nH]3)nc2n1`: the “hERG current change (%, negative = inhibition) at 10uM” value is reported as -6.44%. The figure for `CCOC(=O)Cc1cc(=O)n2[nH]c(C)cc2n1` is -22.3%; for `Cc1ccc(C)c(CN2C(=O)C3(OCCCO3)c3ccccc32)c1` it is -7.5%.

As for `Cc1noc(C)c1C(=O)Nc1ccccc1N1CCOCC1`, the “hERG current change (%, negative = inhibition) at 10uM” value is reported as -3.82%. For `COc1ccc(-c2nc(CS(=O)CC(=O)NCCCN3CCCC3)c(C)o2)cc1OC` (stereo not drawn), the “hERG current change (%, negative = inhibition) at 10uM” value is listed as -3.81%. With `CCOc1cc(/C=N/n2cnnc2)ccc1OCC(=O)Nc1ccccc1OC` the figure was 0.488%; with `Cn1c(=O)n(C)c2cc(S(=O)(=O)Nc3ccccc3)ccc21`, 10.6%. For the molecule `COc1cccc(C(=O)N2CCN=C2SC)c1`, the “hERG current change (%, negative = inhibition) at 10uM” value was found to be 14.9%.

For the molecule `COC(=O)c1ccccc1NC(=O)NC1CC1`, the “hERG current change (%, negative = inhibition) at 10uM” value came out at 19.5%. With `O=C1CC(N2CCOCC2)C(=O)N1CCN1C(=O)CC(N2CCOCC2)C1=O` (stereo not drawn) the figure was 6.4%. With `O=C(Nc1ccccn1)C1CCCN(c2ncnc3c2nc2n3CCCCC2)C1` (stereo not drawn) the figure was -34.8%; with `CCc1nc(SCC(N)=O)c2c(=O)n(C)c(=O)n(C)c2n1`, 6.27%; with `CCC(C)NC(=O)CN(C1CCCCC1)S(C)(=O)=O` (stereo not drawn), 9.11%. Turning to `Cc1cc(C(=O)Nn2c(-c3ccncc3)nc3ccccc3c2=O)ccc1[N+](=O)[O-]`, the “hERG current change (%, negative = inhibition) at 10uM” value came to 31.8%. On to `N#Cc1ncc(Cl)c2ccccc12`, for which the “hERG current change (%, negative = inhibition) at 10uM” value is 9.95%.

On to `Cc1ccc(C)c(NC(=O)CSc2nnc(NC(=O)C3CC3)s2)c1`, for which the “hERG current change (%, negative = inhibition) at 10uM” value is recorded as 18.6%. Regarding `COc1ccc(OC)c(S(=O)(=O)NC2CCSc3ccccc32)c1` (stereo not drawn), the “hERG current change (%, negative = inhibition) at 10uM” value is on record as -7.58%.

Regarding `Cc1noc(C)c1CN(C(=S)NC1CC2CCC1C2)c1ccccc1` (stereo not drawn), the “hERG current change (%, negative = inhibition) at 10uM” value is on record as -13%. As for `CCN(CCCNC(=O)CCCOc1cc(=O)n(C)c2ccccc12)Cc1ccccc1`, the “hERG current change (%, negative = inhibition) at 10uM” value was -12.1%. The figure for `Cl.O=C(O)c1ccc(OCCn2ccnc2)cc1` is 17.6%.

For the molecule `Cc1ccc(-n2nc3c(=O)n(CCCC(=O)NCc4ccccc4C)nc(C)c3c2C)cc1`, the “hERG current change (%, negative = inhibition) at 10uM” value is 0.63%. The figure for `COc1ccc(CN(C)CC2CCCN(CCc3ccc(Cl)cc3)C2)cc1OC` (stereo not drawn) is -88.5%. With `O=C(CSc1ccc2c(c1)OCCO2)Nc1ncc(Cl)cc1Cl` the figure was -4.28%. With `COc1ccccc1CNS(=O)(=O)c1ccc2c(c1)N(C(C)=O)CCO2` the figure was -9.33%; with `O=C(O)CC(NC(=S)NCc1ccccc1)C(=O)O` (stereo not drawn), -5.48%; with `CC(=O)Nc1ccc(NC(=O)Nc2ccccc2C)cc1`, 7.58%. `O=C1CCN(CCc2ccccc2)CCN1[C@H](CO)Cc1ccccc1`: the “hERG current change (%, negative = inhibition) at 10uM” value was -44.4%. With `N#CC1=C(N)C(C#N)(C#N)C2(CCC3(CC2)OCCO3)C2CC3(CC=C12)OCCO3` (stereo not drawn) the figure was -2.56%; with `O=C(Nc1ccc(S(=O)(=O)C(F)F)cc1)c1cccc(S(=O)(=O)N2CCOCC2)c1`, -36.8%; with `CN1C(=O)C(Cc2nc3ccccc3c(=O)n2-c2ccccc2)c2ccccc21` (stereo not drawn), -21.1%.

Take `CCc1ccc(C(=O)CSc2nnc(C3CC3)n2C2CC2)cc1`: the “hERG current change (%, negative = inhibition) at 10uM” value is -16.4%.

Regarding `CCNc1ccc(C(=O)N/N=C/c2c(C)nn(-c3ccccc3)c2N2CCCC2)cc1[N+](=O)[O-]`, the “hERG current change (%, negative = inhibition) at 10uM” value is given as 5.02%.

`O=C1CN(C(=O)CSc2nnnn2C2CC2)c2ccccc2N1`: the “hERG current change (%, negative = inhibition) at 10uM” value is reported as 3.3%. With `C1=CCC(CN2CCN(C3CCCCCC3)CC2)CC1.O=C(O)C(=O)O` (stereo not drawn) the figure was -40.1%; with `O=C(O)CCC(=O)N1N=C(c2ccccc2)CC1c1ccc(Br)cc1` (stereo not drawn), 6.7%; with `CC(=O)Nc1c2c(nn1-c1ccccc1)CSC2`, 11.8%.

Turning to `Cc1ccc(-c2csc3nc[nH]c(=O)c23)cc1C`, the “hERG current change (%, negative = inhibition) at 10uM” value stood at 18.3%. The figure for `COc1cc(CC(=O)O)ccc1OCc1ccccc1` is 4.35%. With `Nc1ccc(-c2sc(N)nc2-c2ccccc2)cc1` the figure was 3.8%. The figure for `Cc1cc(-c2onc(C)c2C(=O)O)no1` is 9.99%; for `COc1ccccc1NC(=O)N1CCCC1C(=O)NCc1ccccc1` (stereo not drawn) it is 4.77%. On to `CCN1CCN(C(c2ccccn2)c2c(NC(=O)c3ccccc3)sc(C)c2C)CC1` (stereo not drawn), for which the “hERG current change (%, negative = inhibition) at 10uM” value is recorded as -59.8%. With `CCOC(=O)N1CCN(Cc2nc3cc(NC(=O)c4ccco4)ccc3n2CC)CC1` the figure was -58%; with `CCN(CC)c1ccc(NC(=O)c2ccc(NC(=O)C3CCCO3)cc2)c(C)c1` (stereo not drawn), 3.37%. For the molecule `C[N+](C)(C)CCCCCC(=O)/C=N/O.[I-]`, the “hERG current change (%, negative = inhibition) at 10uM” value came out at 14.1%.

Regarding `COc1ccc(S(=O)(=O)N2CCCCCC2)cc1NC(=O)CN1C(=O)NC(C)(c2ccccc2)C1=O` (stereo not drawn), the “hERG current change (%, negative = inhibition) at 10uM” value is given as -31.4%.

Turning to `COc1ccc(-c2cc(C(=O)OCC(=O)N(C)C)c3ccccc3n2)cc1`, the “hERG current change (%, negative = inhibition) at 10uM” value is reported as -5.96%.

As for `Cc1cc(CCN2CCC(=O)NC2=O)ccc1OC(C)C`, the “hERG current change (%, negative = inhibition) at 10uM” value is reported as 6.24%.

In the case of `CC(C)(C)NC(=O)CN(Cc1ccc2c(c1)OCO2)C(=O)CCC(=O)Nc1nccs1`, the “hERG current change (%, negative = inhibition) at 10uM” value came to 8.01%. The figure for `O=C(COC(=O)/C=C/c1cccc([N+](=O)[O-])c1)Nc1ccc(Cl)cn1` is 5.09%; for `Cc1cc(C)n(-c2nc(NCCO)c3c4c(sc3n2)CCCC4)n1` it is 1.39%; for `Cc1ccc(C(=O)C[n+]2ccc(-c3nnc4n3CCC4)cc2)cc1.[Br-]` it is 10.4%. With `CCN(CC)CC.Cc1nnc(SCC(=O)NCc2ccc3c(c2)OCO3)[nH]c1=O.Cl` the figure was 4.46%; with `CCCCCn1c(CN2CCCCC2CC)nc2c1c(=O)n(C)c(=O)n2C` (stereo not drawn), -44.7%. With `Cc1nc2c(sc(=S)n2Cc2ccco2)c(=O)n1CC(=O)Nc1ccccc1F` the figure was 6.02%. As to `CC(C)c1ccccc1N=C1SCCCN1C(=O)c1cccc(N2C(=O)CCC2=O)c1`, the “hERG current change (%, negative = inhibition) at 10uM” value is 11.2%.

For the molecule `COc1ccc(N2CC(C(=O)N[C@@H](C)C(=O)N[C@H](CO)c3ccccc3)CC2=O)cc1` (stereo partly drawn), the “hERG current change (%, negative = inhibition) at 10uM” value amounted to 17.6%. For `c1ccc(CC2CCN(c3nnnn3-c3ccccc3)CC2)cc1`, the “hERG current change (%, negative = inhibition) at 10uM” value is recorded as -13.1%.

For `CC(=O)N1c2ccccc2NC2=C(C(=O)CC(C)(C)C2)C1c1cccn1C` (stereo not drawn), the “hERG current change (%, negative = inhibition) at 10uM” value is recorded as 6.95%. As to `Cc1ccc(S(=O)(=O)Nc2cc3c(C(=O)O)c(C)oc3c3ccccc23)c(C)c1`, the “hERG current change (%, negative = inhibition) at 10uM” value stood at 17.5%. With `Cc1cccc(OCC(=O)OCC(=O)N2CCCc3ccccc32)c1C` the figure was 8.81%; with `Cc1ccc(OCC(=O)N/N=C/c2ccncc2)cc1C`, 5.75%. With `CCCCCCC1CC(CCC(=O)Nc2ccc([N+](=O)[O-])cc2)C(=O)O1` (stereo not drawn) the figure was 3.95%.

Turning to `CCC(=O)N1CCN(c2cc(C)ccc2C)CC1`, the “hERG current change (%, negative = inhibition) at 10uM” value is on record as 3.22%. On to `CCCCC(=O)Nc1ccc(NCc2ccc(C)s2)cc1`, for which the “hERG current change (%, negative = inhibition) at 10uM” value was -2.79%.

Regarding `Nc1ncccc1OCc1ccc(Cl)c(Cl)c1`, the “hERG current change (%, negative = inhibition) at 10uM” value is -5.85%. With `Cc1sc(C(=O)Nc2ccc3ccccc3c2)cc1CC(=O)O` the figure was 16.9%; with `COc1cc(NC(=O)COn2nnc3ccc(S(C)(=O)=O)cc32)cc(OC)c1`, -0.99%; with `O=C(Cc1ccc(NC2=NC3CS(=O)(=O)CC3S2)cc1)NCCc1ccccc1` (stereo not drawn), 6.22%. The figure for `COC(=O)[C@@H](NC(=O)c1ccccc1OC1CCN(S(C)(=O)=O)CC1)C(C)C` is 4.81%; for `CCc1nnc(NC(=O)Cn2nc(-c3ccccc3OC)ccc2=O)s1` it is 6.05%; for `COc1cc(N/C(N)=N/c2nc(C)cc(C)n2)c(OC)cc1Cl` it is -56.7%.

As for `CCCSc1nsc(NC(=O)CCC)n1`, the “hERG current change (%, negative = inhibition) at 10uM” value is listed as -19.7%. The figure for `COc1ccc(OCc2cn3c(C)cc(C)nc3n2)cc1` is -6.1%; for `CC(=O)c1cc(C#N)c(N(C)Cc2ccccc2)nc1C` it is -2.52%; for `CCCC(CCC)C(=O)NNc1cc(=O)c2c(=O)n(C)c(=O)n(C)c2[nH]1` it is 13.5%. The figure for `CN(C)c1nccc(N(Cc2ccccc2)Cc2ccccc2)c1C#N` is -58.3%. With `Cc1ccc2c(=O)cc(C(=O)Nc3ccc(S(=O)(=O)Nc4onc(C)c4C)cc3)oc2c1` the figure was 24.9%; with `CCN(CC)c1c([N+](=O)[O-])c(=O)n(C)c2ccccc12`, -42.1%; with `O=C(CCN1C(=O)c2ccccc2C1=O)NCc1ccc(F)cc1`, -15.5%. For the molecule `O=C1C=C(c2ccc3c(c2)OCO3)CCC1`, the “hERG current change (%, negative = inhibition) at 10uM” value is 6.65%. On to `C[C@@H]1NS(=O)(=O)[C@H]2C[C@@H]3C=C[C@]2(O3)[C@H]1OC(=O)c1ccc(C(C)(C)C)cc1`, for which the “hERG current change (%, negative = inhibition) at 10uM” value is listed as 1.88%. The figure for `CN(C)S(=O)(=O)c1cccc(-c2nnc(SCc3cc(Cl)cc4c3OCOC4)n2N)c1` is -13.8%; for `CCCCN(C)CCNC(=O)c1cc2c(-c3cccc(OC)c3)nn(C)c2s1` it is -49.5%. For `Nc1nonc1C(=O)NCCNC(=O)c1cccc(Cl)c1`, the “hERG current change (%, negative = inhibition) at 10uM” value was -0.0265%. On to `COc1ccc(NC(=O)Nc2ccc(C(=O)N3CCOCC3)cc2)cc1`, for which the “hERG current change (%, negative = inhibition) at 10uM” value came to 6.27%.

`S=C(Nc1ccccc1)Nc1nc2ccccc2n1CCOc1ccc(Cl)cc1`: the “hERG current change (%, negative = inhibition) at 10uM” value is 17.2%. With `CC(=O)c1cccc(OC(=O)C2=CC=CN3CCS(=O)(=O)N=C23)c1` the figure was 10.4%. With `COc1ccc(OC)c(NC(=O)Nc2ccc3c(c2)OCO3)c1` the figure was 23.5%; with `CCN(CC)CCn1c(=S)[nH]c2ccc(Cl)cc2c1=O`, -60.8%.
